US12551573B2, “Compositions and methods for the targeting of PCSK9” (Scribe Therapeutics Inc., priority 2022, dated 2026)

B1: DOMAIN_19708 (protein)
chain: TQVSVTFDDVAVTFTQEEWGHLDPAQRTLYREVMLETCRLLVSLGCPVPRPELIYRLEHGQELWTVKRDLSRSTCAVDEGK
modifications: source 1..81: note = Bos indicus x Bos taurus
B2: DOMAIN_19721 (protein, listed as Otolemur garnettii)
chain: FQGPVTFRDVAIDFSQEEWKWLQPAQRDLYRCVMLENYGHLVSLGLSISKPDVVSLLEQGKEPWLEQGDVRRNLFSVSQSN
B3: DOMAIN_19611 (protein)
chain: SLGSDLFRDVAVVFSQEEWEQLAPAQRDLYRDVMLEIYSNLVSLGFAISKPDVISFLEQGREPWMVEKVVTGGQCPVLESR
modifications: Lipotes vexillifer
B4: DOMAIN_19713 (protein)
chain: EPGAVSFADVAVYFSPEEWECLRPAQRALYRDVMRETYGHLGALGFPGPKPALISWMEQESEAWSPAAQDPEKGERLGGAR
modifications: Pan troglodytes
B5: DOMAIN_19629 (protein, listed as Monodelphis domestica)
chain: SEETVTFKDVAVDFTWEEWKQLTPVQRDLYRDVMLENYQNLVSLGLPVFQSDLISQLERGEVPWIPEGETFRGPCPGSINQ
B6: DOMAIN_19805 (protein, listed as Rhinolophus ferrumequinum)
chain: SQGLVTFRDVALDFSQEEWEWLDPSQKDLYRDVMLENYRNLVCLGLSISKPNMISLLEQGKEPWMVQREMSDDPYTDWESW
B7: DOMAIN_19600 (protein, listed as Monodelphis domestica)
chain: SQVSLTFRDVAVDFSQEEWGLLEPAQKDMYRDVMLENYENFLSLGLPISKPNMISQLKRREAPSWIAEGKVSLSTYLGTLR
B8: DOMAIN_19780 (protein, listed as Pongo sp.)
chain: MVTFEDVAVHFTKTEWTGLSPAQRALYRSVMLENFGNLTALGYPVPKPALISLLEGGDMAWGLEAQDDPLAETTKNVCKDV
B9: DOMAIN_19776 (protein, listed as Enhydra lutris)
chain: LQEPVTFADVAVLFTPEEWMFLDSAQRSLYRDVMLENYRNLASVGDQLGKPSMLSLSEPGEELWAPERRTFPGTRPEPQHQ
B10: DOMAIN_19788 (protein, listed as Enhydra lutris)
chain: RPRAVKFADVAVYFSPEEWGCLRPAQRALYRDVMRETYGHLSALGCSGPKPALISWLERNTDDWEPAALDPQECPRGLTVQ
B11: DOMAIN_19800 (protein, listed as Zalophus californianus)
chain: SLESDLFRDVAIVFSQEEWEQLAPAQRDLYRDVMLETYSNLVSLGLAIAKPDVISFLEQGKEPWVVEKMSRGGLCPVLESR
B12: DOMAIN_19786 (protein)
chain: FEELVTFEDVLVDFSPEELSSLSAAQRNLYREVMLENYRNLVSLGHQFSKPDVISRLEEEESHAMETDSRHTVICPGESHD
modifications: Pan troglodytes
B13: DOMAIN_19777 (protein, listed as Pongo sp.)
chain: RRESVTFEDVAVYFSENEWIGLGPAQRALYRDVMLENYGAVASLAFPFPKPALISQLERGETPWCSVPQGALDGEAPRGIS
B14: DOMAIN_225 (protein, listed as Pan paniscus)
chain: MDSVAFEDVAVNFTQEEWSLLDPSQKNLYREVMQETLRNLASIGEKWKDQYIEDQYKNPRNNLRSLLGERVDENTEENHCG

What follows are molecules tested on HBEGF locus. Conditions: high-throughput screen of dXR repression of the HBEGF gene; abundance of each domain in the library before vs after diphtheria toxin selection; listed domains met p-value <0.01 and log2(fold change) >2.
Type: cell-based, human

Going from B1 to B2, the “Log2 (fold change)” value falls from 3.6339 to 2.6913.

First: B3
Second: B4
The “Log2 (fold change)” value of the first is lower: 3.3901 for the first, 3.845 for the second.

Going from B5 to B6, the “Log2 (fold change)” value falls from 3.0535 to 2.6527.

First: B7
Second: B8
The “Log2 (fold change)” value of the first is lower: 2.5854 for the first, 3.0867 for the second.

Compared with B9, B10 is higher in “Log2 (fold change)” value: 2.617 for the first, 3.3393 for the second.

Going from B11 to B12, the “Log2 (fold change)” value rises from 2.368 to 2.9155.

For B13, the “Log2 (fold change)” value was 3.2427.

Same assay, conditions: high-throughput screen of dXR repression of the HBEGF gene; change in abundance of each domain in the library before and after diphtheria toxin selection

With B14 the “Log2 (fold change)” value was 2.259.
